# Where a structure was tested more than once in an assay, its records may differ in their call.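 Step 1: grow cells in 96-well plates. Step 2: add test compound at a single concentration. Step 3: incubate 48 h. Step 4: record percent growth.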 Not every entry of the source has a single result; some have several. This is not the full list of results. The source may hold further records. Rule for the calls: active = growth percent below 10; inactive = the rest. These are repeated runs of one drug, at its own concentration, as given; each value is one run. Marks such as (2×) give the number of equal values in this list.
# Tested on: HCT-15 colon
# Experiment: NCI-60 one-dose screen, 48 h (100 = growth as untreated, 0 = no growth, -100 = all killed)
compound,measurement,setting,value
COc1cccc2c1C(=O)c1c(O)c3c(c(O)c1C2=O)C[C@@](O)(C(=O)CO)C[C@@H]3OC1CC(N)C(O)C(C)O1 (stereo not given in full),growth,"0.25 µM, runs of 2012","inactive: 92, 90.7 (2×), 87.2, 91.5, 85.9, 89.7, 92.2, 91.4, 92.5 (3×), 84.8 (2×), 89.9, 85.7 (2×), 89.8 (2×), 80.4 (2×), 88.2, 94, 94.2, 94.5, 86.8, 84.3, 82.6 (2×), 83.4 (2×), 87.6 (2×), 90.8, 82.9, 85.1, 82.3, 95.3, 94.6, 86.4, 79 (2×), 84.7, 80.8, 74.7 (2×), 79.6, 73.6, 76.4, 74.9, 80 (2×), 77.5 (2×), 78.6, 74.1, 86.5, 78, 93.6, 91 (2×), 87.7, 96, 77.6, 78.7, 80.7, 70.6, 84.6, 80.6%"
same,growth,"0.25 µM, runs of 2013","inactive: 88.4, 83.1, 81.3 (2×), 85.3, 93.8, 86.2 (2×), 87, 87.7, 83.3, 83.6 (2×), 90.4, 84 (2×), 85.6, 90.3 (2×), 91.9, 79.5, 88.5, 80.2, 77, 77.6, 76.5, 77.3 (3×), 78.4 (2×), 81.1 (2×), 78.6, 74.8, 82.8, 87.6, 86.6 (2×), 85.2, 88, 78 (2×), 82.6, 76.1, 80.1, 79.8, 75.7, 78.1, 77.1, 71.2, 70, 63, 69.5, 87.2 (2×), 84.2, 77.7, 81.2, 80.6 (2×), 78.2, 73.5, 75.8, 73.9, 74.1, 68%"
same,growth,"0.25 µM, runs of 2014","inactive: 82.8, 84, 80.1, 81.6 (2×), 73.7 (2×), 77.6, 76.3, 80, 76, 75.2 (2×), 86.1, 84.4, 81.1, 74.8, 81 (3×), 76.4 (2×), 82.3 (2×), 83.4, 76.7 (2×), 76.8, 76.9 (3×), 77.5, 75.5, 72.5 (3×), 74.5, 77.3, 78.7 (2×), 82.2, 74.1, 72.6, 70.5, 72.9, 71.6 (2×), 79.8, 73.3 (2×), 73.6 (2×), 67, 67.9, 66.2, 65, 66.3, 65.5, 70.6, 68.4, 75.6 (2×), 71.3, 68.9, 70.3, 79 (2×), 64.6, 74.9, 84.9, 69.2, 73.4, 80.8, 70.2, 68.6, 76.2, 78.6, 67.4%"
same,growth,"0.25 µM, runs of 2015","inactive: 78.9, 84.8, 72.4 (2×), 75.2 (2×), 72.6, 80, 69.5, 76.5 (2×), 73.6, 75.6, 78.2, 82.4 (2×), 77.5 (2×), 76.9 (2×), 71.2, 89.6, 67.2, 77.4, 76.4, 71.6, 83.1, 77.3 (2×), 81.6, 75.8, 80.5, 78.6, 81.2 (3×), 77.1 (2×), 75.7, 77.2 (2×), 73.5, 84.1 (2×), 68.8, 82.6, 76.3, 73.7, 87.8, 70.1, 72.2, 86.9, 73, 70.5, 78.5, 72.9, 77 (3×), 80.8 (3×), 81.8 (2×), 79.7, 68.5, 74.3 (2×), 86.2, 81.9, 79, 84.7, 79.1, 85.8%"
same,growth,"0.25 µM, runs of 2016","inactive: 82.8 (3×), 80.1, 82.9 (2×), 85.6, 79.8 (2×), 76.6 (2×), 87.6, 75.6, 79.1, 78.5, 77.6 (3×), 82.2, 81.8 (2×), 80.6 (2×), 74.5, 79.3, 77.7, 81, 78.7 (2×), 77.3 (2×), 77.4, 76.5, 75.5, 77 (2×), 76.3, 79, 81.3 (2×), 79.6, 78, 81.4, 82.7, 85.2 (2×), 81.7 (3×), 83.4, 90.1, 86.4, 86.6, 80.4, 75.8, 78.1, 83.7 (2×), 85.8, 80.5 (3×), 89.7, 88.3, 84.1, 83 (2×), 85.3, 80, 84, 84.2, 85.5 (2×), 88.4, 83.1, 82.6, 81.9, 81.2, 77.5, 87.5, 86%"
same,growth,"0.25 µM, runs of 2017","inactive: 81.2 (3×), 82.4 (2×), 79.8 (2×), 82.1, 83.1 (2×), 77.1 (2×), 79 (2×), 73.5, 79.6, 76.6, 76.1, 82.9, 77.6 (2×), 76.5 (2×), 79.3 (3×), 81.8, 81.6, 77, 80.7 (3×), 75.7 (2×), 77.2, 78.2, 79.2, 81.1 (3×), 73.7 (2×), 80.4 (2×), 77.3, 82.2 (2×), 73.9, 76, 75.2, 78.3 (2×), 69.2, 74.9, 74.5, 73.2 (2×), 86.2, 89.2, 82.3, 83.7, 84.9, 85.9, 78.4, 77.7, 80, 83.9, 79.5 (2×), 80.8, 80.2, 80.1, 85.1, 81.4, 85.7%"
same,growth,"0.25 µM, runs of 2018","inactive: 87.1, 84.2, 75.6, 75.7, 74.7, 76.4 (2×), 79.8 (3×), 77.1, 83, 86.6, 80.1, 82.1, 79.2, 76.2, 82.2, 73.6, 72.8, 89.6, 79.5, 80, 80.7, 78.6, 76.8, 79.6, 79.3, 79.1, 74.9 (2×), 78.2 (2×), 81.4, 80.8, 78.1, 77.6, 74.8, 73.5, 77.2, 78.7 (2×), 77 (2×), 74.3, 78.9, 79, 81, 78.8%"
same,growth,"0.25 µM, runs of 2019","inactive: 72.7, 69.8 (3×), 77.4, 69, 69.2, 72.8 (2×), 68.8, 73.9 (3×), 80.1, 76.7, 75.6, 81.4, 71.2, 76.6, 73.4 (2×), 73, 73.7 (2×), 72.5, 70.9, 79.2, 64.6, 74.2, 62.4, 61.5 (2×), 76.3 (2×), 78.2, 83.4, 83.5, 79.5, 76.9, 82.2, 70.2, 70.6, 73.5, 75, 67.6, 74.9%"
same,growth,"0.25 µM, runs of 2020","inactive: 65.3, 67.7 (2×), 67.2, 66.7, 70.2, 69.9, 70.3, 72.5, 80, 81.7, 76.1, 82.1, 85.7, 76, 76.4, 78.7, 76.9, 74.1, 67.3, 78.5%"
same,growth,"0.25 µM, runs of 2021","inactive: 81.8, 84.4, 76, 78.4, 76.6, 74.2, 70.4 (2×), 70.3, 79.2, 80.7, 75, 74.7, 64.8, 69.7, 70.6, 73.4, 67.7, 70.1, 68.4 (2×), 67, 66.2, 67.9, 73.6, 78.9 (2×), 76.5, 59.8, 78, 78.7, 80.2, 82.8, 80.5, 75.8, 72.5, 83.5, 68, 67.1, 65.4, 61, 77.7, 74.8, 71.6, 77.6, 78.1, 76.8%"
same,growth,"0.25 µM, runs of 2022","inactive: 55.2, 69.9, 67.3, 46, 68.8 (2×), 60.4, 70.3, 73.7, 67.4, 72.2, 69.3, 70.1, 74.8 (2×), 82.6, 84.4, 81.7, 78.9, 82.1, 93.7, 71.3, 72.5, 71.2%"
same,growth,"25 µM, runs of 1991","active: 0.884, 5.31, -9.27, 0.874, 2.49, -5.81, 4.13, -19, -5.38, 1.29, 4.28, 0.462, -5, -13.7% and inactive: 97.9%"
same,growth,"25 µM, runs of 1992","active: -3.77, 0.527, 7.25, 4.77, -8.1, -83.6, 0, 1.86, 2.08, 4.58, -20.2, -6.36, -19.3 (2×), 7.92, 8.99, 2.22, 1.54, 0.0446, -8.24, -8.96, -46.7, 2.27 (2×), 6.39, -94.3, -11.9, -23.2 (3×), 1.93, -0.477, 0.638, -8.05, 3.26, -44.4, -44.1, -13.8, -10.3, 0.824, 1.02, -24, 9.23, 8.23, -53.8, -34.8, -23.5, -27.8, -23.9, -4.66, 1.28, 6.46, 3.79, 2.53, -73, -16.6, -54.6, 0.15, 2.96, 1.43, 4.79, 1.25, 8.2, 4.33, -50.3, 6.71, -29.6, -27.5, -31.5, -15.1, -12.5, 1.2, 0.516, -5.05, -21.5, -34.4, -14.7, -7.95, -15.2, 7.81, -24.3, 3.57, -15.3, -13.4, 7.38, 5.65, 3.29, 8.12, -2.82, 2.06, 9.01, 5.45, 5.49% and inactive: 41.1, 11.1 (2×), 15.1, 16.3, 37.9, 10.5, 17.6, 12.2, 18.5, 12.6, 10.4, 11, 12.4, 12.7, 17.7, 13.7, 11.6, 14.7, 21.8, 13.1, 18.6, 12.9, 22.1, 22.5, 18.4, 30.9%"
same,growth,"25 µM, runs of 1993","active: 2.39, 1.35, -11.6, -10.3, 3.05, 4.73, -15.3 (2×), 5.33, 4.26, -19.6, 0.0366, -25.5, -3.3, -23.2, -12.4, -0.746, 4.64, 4.43, 3.27, -16.2, 7.67, -9.12, -36.4, 7.56, 7.85, 1.51, 2.08, 1.67, -6.54, -26.3, -5.4, 7.75, -40.1, 1.28, 4.94, -7.83, 1.87, -35.9, 4.34, 2.47, -19.4, 0.139, 0.617, -30% and inactive: 16.4%, 14.4%"
same,growth,"25 µM, runs of 1994","inactive: 23, 101, 11.8, 26.1, 10.9, 11.2, 11.9% and active: -35.7, -19.9, 7.82, -15.7, 6.98, 0.721, -25.7, 3.55, -6.31, -22.3, 5.87, 2.25, 1.5, -4.1, 4.82, -4.61, -26.2, 1.49, 8.85, 9.49, -18.6, 4.83, -9.84, -3.3, -6.33%"

# From PubChem BioAssay (NCI)
